Substitutions are numbered along the chain they refer to; changes in the protein carry UniProt numbers. Some of the results follow.

The chains are these.
T1: RBFOX1 RRM RbFoxmut (Fox-RRM*) (Homo sapiens, UniProt Q9NWB1 109-208, R118D;E147R;N151S;E152T)
T1 sequence: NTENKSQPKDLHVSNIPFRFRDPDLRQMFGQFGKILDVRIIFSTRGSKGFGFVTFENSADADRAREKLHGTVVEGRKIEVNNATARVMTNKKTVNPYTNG

B1: UAUGAAA (DNA:RNA)
RNA: GGGAGACCGGAAUUCAGAUUGUCCUAUGAAAUUAAAUCCCGUCGUAGCCACCA
DNA 1: CAATCTGAATTCCGGTCTCCC
DNA 2: TGGTGGCTACGACGGGATT
B2: GACGCCU (DNA:RNA)
RNA: B1 RNA with U25G, U27C, A29C, A30C, A31U
DNA 1: CAATCTGAATTCCGGTCTCCC
DNA 2: TGGTGGCTACGACGGGATT
B3: UUACAUU (DNA:RNA)
RNA: B1 RNA with A26U, U27A, G28C, A30U, A31U
DNA 1: CAATCTGAATTCCGGTCTCCC
DNA 2: TGGTGGCTACGACGGGATT
B4: UAUGAGA (DNA:RNA)
RNA: B1 RNA with A30G
DNA 1: CAATCTGAATTCCGGTCTCCC
DNA 2: TGGTGGCTACGACGGGATT
B5: UGCACGA (DNA:RNA)
RNA: B1 RNA with A26G, U27C, G28A, A29C, A30G
DNA 1: CAATCTGAATTCCGGTCTCCC
DNA 2: TGGTGGCTACGACGGGATT
B6: UCCUAGU (DNA:RNA)
RNA: B1 RNA with A26C, U27C, G28U, A30G, A31U
DNA 1: CAATCTGAATTCCGGTCTCCC
DNA 2: TGGTGGCTACGACGGGATT
B7: GUUGCUG (DNA:RNA)
RNA: B1 RNA with U25G, A26U, A29C, A30U, A31G
DNA 1: CAATCTGAATTCCGGTCTCCC
DNA 2: TGGTGGCTACGACGGGATT
B8: ACAAUAA (DNA:RNA)
RNA: B1 RNA with U25A, A26C, U27A, G28A, A29U
DNA 1: CAATCTGAATTCCGGTCTCCC
DNA 2: TGGTGGCTACGACGGGATT
B9: AUCAAAU (DNA:RNA)
RNA: B1 RNA with U25A, A26U, U27C, G28A, A31U
DNA 1: CAATCTGAATTCCGGTCTCCC
DNA 2: TGGTGGCTACGACGGGATT
B10: UGAGAAU (DNA:RNA)
RNA: B1 RNA with A26G, U27A, A31U
DNA 1: CAATCTGAATTCCGGTCTCCC
DNA 2: TGGTGGCTACGACGGGATT
B11: GUGCGCA (DNA:RNA)
RNA: B1 RNA with U25G, A26U, U27G, G28C, A29G, A30C
DNA 1: CAATCTGAATTCCGGTCTCCC
DNA 2: TGGTGGCTACGACGGGATT
B12: ACUUUCC (DNA:RNA)
RNA: B1 RNA with U25A, A26C, G28U, A29U, A30C, A31C
DNA 1: CAATCTGAATTCCGGTCTCCC
DNA 2: TGGTGGCTACGACGGGATT
B13: GCGUCUG (DNA:RNA)
RNA: GGGAGACCGGAAUUCAGAUUGUCCGCGUCUGUUAAAUCCCGUCGUAGCCACCA
DNA 1: CAATCTGAATTCCGGTCTCCC
DNA 2: TGGTGGCTACGACGGGATT
B14: UGAUGCU (DNA:RNA)
RNA: B13 RNA with G25U, C26G, G27A, C29G, U30C, G31U
DNA 1: CAATCTGAATTCCGGTCTCCC
DNA 2: TGGTGGCTACGACGGGATT
B15: AUGCCGA (DNA:RNA)
RNA: B13 RNA with G25A, C26U, U28C, U30G, G31A
DNA 1: CAATCTGAATTCCGGTCTCCC
DNA 2: TGGTGGCTACGACGGGATT
B16: ACGCACG (DNA:RNA)
RNA: B13 RNA with G25A, U28C, C29A, U30C
DNA 1: CAATCTGAATTCCGGTCTCCC
DNA 2: TGGTGGCTACGACGGGATT
B17: GACGUGU (DNA:RNA)
RNA: B1 RNA with U25G, U27C, A29U, A30G, A31U
DNA 1: CAATCTGAATTCCGGTCTCCC
DNA 2: TGGTGGCTACGACGGGATT
B18: ACCGUCU (DNA:RNA)
RNA: B13 RNA with G25A, G27C, U28G, C29U, U30C, G31U
DNA 1: CAATCTGAATTCCGGTCTCCC
DNA 2: TGGTGGCTACGACGGGATT
B19: AGGUGAA (DNA:RNA)
RNA: B13 RNA with G25A, C26G, C29G, U30A, G31A
DNA 1: CAATCTGAATTCCGGTCTCCC
DNA 2: TGGTGGCTACGACGGGATT
B20: CCGUUCG (DNA:RNA)
RNA: B13 RNA with G25C, C29U, U30C
DNA 1: CAATCTGAATTCCGGTCTCCC
DNA 2: TGGTGGCTACGACGGGATT
B21: CUACAUA (DNA:RNA)
RNA: B1 RNA with U25C, A26U, U27A, G28C, A30U
DNA 1: CAATCTGAATTCCGGTCTCCC
DNA 2: TGGTGGCTACGACGGGATT
B22: CAGAGAA (DNA:RNA)
RNA: B1 RNA with U25C, U27G, G28A, A29G
DNA 1: CAATCTGAATTCCGGTCTCCC
DNA 2: TGGTGGCTACGACGGGATT
B23: UUUACAU (DNA:RNA)
RNA: B1 RNA with A26U, G28A, A29C, A31U
DNA 1: CAATCTGAATTCCGGTCTCCC
DNA 2: TGGTGGCTACGACGGGATT
B24: GUAGACU (DNA:RNA)
RNA: B1 RNA with U25G, A26U, U27A, A30C, A31U
DNA 1: CAATCTGAATTCCGGTCTCCC
DNA 2: TGGTGGCTACGACGGGATT
B25: UCUGAAA (DNA:RNA)
RNA: B1 RNA with A26C
DNA 1: CAATCTGAATTCCGGTCTCCC
DNA 2: TGGTGGCTACGACGGGATT
B26: UUAAAAG (DNA:RNA)
RNA: B1 RNA with A26U, U27A, G28A, A31G
DNA 1: CAATCTGAATTCCGGTCTCCC
DNA 2: TGGTGGCTACGACGGGATT
B27: CAUAACA (DNA:RNA)
RNA: B1 RNA with U25C, G28A, A30C
DNA 1: CAATCTGAATTCCGGTCTCCC
DNA 2: TGGTGGCTACGACGGGATT
B28: UAUUCGC (DNA:RNA)
RNA: B1 RNA with G28U, A29C, A30G, A31C
DNA 1: CAATCTGAATTCCGGTCTCCC
DNA 2: TGGTGGCTACGACGGGATT
B29: UUCUAUA (DNA:RNA)
RNA: B1 RNA with A26U, U27C, G28U, A30U
DNA 1: CAATCTGAATTCCGGTCTCCC
DNA 2: TGGTGGCTACGACGGGATT
B30: CAUAGGG (DNA:RNA)
RNA: B1 RNA with U25C, G28A, A29G, A30G, A31G
DNA 1: CAATCTGAATTCCGGTCTCCC
DNA 2: TGGTGGCTACGACGGGATT
B31: UUGACGG (DNA:RNA)
RNA: B13 RNA with G25U, C26U, U28A, U30G
DNA 1: CAATCTGAATTCCGGTCTCCC
DNA 2: TGGTGGCTACGACGGGATT

The target of this experiment is T1, RBFOX1 RRM RbFoxmut (Fox-RRM*). Briefly: EMSA; HiTS-Eq, 1 nM pool, 10 min; buffer printed only for the single-RNA assays: 10 mM Tris pH 7.5, 150 mM NaCl, 3.4 mM EDTA, 0.001% NP-40, 30 C. As to conditions: tags: His6 N-terminal (pET28a); label: 5' 32P. The gist of the method:
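A pool of RNA with 7 randomized nucleotides, 5′-radiolabelled and with DNA-annealed flanks, was equilibrated at 1 nM for 10 min in 50 µL with purified RbFox RRM, wild type or mutant, across increasing protein concentrations. Free RNA was separated by 8% native PAGE, excised, reverse-transcribed, barcoded by PCR and sequenced. Relative association constants were obtained from read-count changes of each RNA species versus the control reaction and normalised to the cognate motif.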
A general note: A gel shift assay detects complexes by their altered migration in electrophoresis.
As for B1, the binding signal was 0.0566 KA relative to UGCAUGU.
For B2, the binding signal was 0.078 KA relative to UGCAUGU.
B3: the binding signal was 0.0627 KA relative to UGCAUGU.
On to B4, for which the binding signal is 0.094 KA relative to UGCAUGU.
With B5, the binding signal was 0.368 KA relative to UGCAUGU.
As to B6, the binding signal is 0.117 KA relative to UGCAUGU.
To B7 belongs 0.138 KA relative to UGCAUGU; to B8, 0.105 KA relative to UGCAUGU; to B9, 0.0871 KA relative to UGCAUGU.
Take B10: the binding signal is 0.092 KA relative to UGCAUGU.
The result for B11 reads 0.166 KA relative to UGCAUGU.
As for B12, the binding signal is 0.0562 KA relative to UGCAUGU.
Take B13: the binding signal was 0.189 KA relative to UGCAUGU.
Take B14: the binding signal was 0.0843 KA relative to UGCAUGU.
Regarding B15, the binding signal is 0.106 KA relative to UGCAUGU.
For the molecule B16, the binding signal was 0.354 KA relative to UGCAUGU.
In the case of B17, the binding signal is 0.15 KA relative to UGCAUGU.
For the molecule B18, the binding signal was 0.0777 KA relative to UGCAUGU.
Regarding B19, the binding signal is 0.12 KA relative to UGCAUGU.
Take B20: the binding signal was 0.112 KA relative to UGCAUGU.
For B21, the binding signal is 0.0795 KA relative to UGCAUGU.
Take B22: the binding signal is 0.11 KA relative to UGCAUGU.
Consider B23, for which the binding signal was 0.0913 KA relative to UGCAUGU.
Take B24: the binding signal was 0.0824 KA relative to UGCAUGU.
As to B25, the binding signal was 0.044 KA relative to UGCAUGU.
With B26, the binding signal was 0.0912 KA relative to UGCAUGU.
Regarding B27, the binding signal was 0.0932 KA relative to UGCAUGU.
For the molecule B28, the binding signal is 0.102 KA relative to UGCAUGU.
To B29 belongs 0.146 KA relative to UGCAUGU; to B30, 0.0682 KA relative to UGCAUGU; to B31, 0.0789 KA relative to UGCAUGU.

The values above are taken from article PMC9911399, “Two distinct binding modes provide the RNA-binding protein RbFox with extraordinary sequence specificity”.
